Measurements as given in PMC6919601, “Identification of Plasmodium dipeptidyl aminopeptidase allosteric inhibitors by high throughput screening” (PLoS ONE, 2019).
Values joined by “and” are separate entries in the source; they are usually repeats but may differ in a detail not shown here. Identical values can stand only once. In all, about 110,000 compounds went through this assay and about 230 (0.21%) showed an effect of 50% or more. The list shows a part of the results.

target: DPAP1 (Plasmodium falciparum, UniProt Q8IIJ9); experiment: primary screen, percent inhibition; read by cleavage of a fluorogenic dipeptide substrate; higher = more effect of the substance; parameters: species or system P. falciparum D10 trophozoite lysates; single well
Sequence (Q8IIJ9 whole entry, looked up): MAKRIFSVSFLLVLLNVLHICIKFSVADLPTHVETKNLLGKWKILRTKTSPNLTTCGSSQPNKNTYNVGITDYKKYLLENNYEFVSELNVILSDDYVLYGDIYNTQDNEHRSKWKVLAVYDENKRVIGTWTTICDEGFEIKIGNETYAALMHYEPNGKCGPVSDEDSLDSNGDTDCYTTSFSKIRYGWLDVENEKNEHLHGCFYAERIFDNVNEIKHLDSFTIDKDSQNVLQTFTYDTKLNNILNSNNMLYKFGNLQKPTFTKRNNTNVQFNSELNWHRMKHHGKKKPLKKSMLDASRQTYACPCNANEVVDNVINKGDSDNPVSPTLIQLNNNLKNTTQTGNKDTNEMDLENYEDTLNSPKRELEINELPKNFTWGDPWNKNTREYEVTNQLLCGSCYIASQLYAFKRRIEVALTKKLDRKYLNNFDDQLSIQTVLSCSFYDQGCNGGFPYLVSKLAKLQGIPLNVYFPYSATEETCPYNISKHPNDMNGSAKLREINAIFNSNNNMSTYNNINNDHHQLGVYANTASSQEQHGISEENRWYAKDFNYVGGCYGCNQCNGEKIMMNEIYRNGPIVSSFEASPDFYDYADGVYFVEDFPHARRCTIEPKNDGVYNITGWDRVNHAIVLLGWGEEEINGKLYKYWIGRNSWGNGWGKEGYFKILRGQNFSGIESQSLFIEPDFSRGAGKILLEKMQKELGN
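Also: 30 min substrate incubation versus DMSO and 10 µM JCP410 controls.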

Going from `CCC(C)c1ccccc1OCCOc1ccc(/C=C2/C(=N)N3OC(C)=CC3=NC2=O)cc1OC` (centres unmarked) to `COc1ccc(/C=C2\N=C(c3ccc(C)cc3)OC2=O)cc1Br`, the “% Inhibition @ 10 uM” value rises from -3.23% to 1.76%.

First: C=CCOc1ccc(C2C3=C(N=C(C)/C2=C(/O)OC)c2ccccc2C3=O)cc1Cl (centres unmarked)
Second: COc1ccc(-c2noc(-c3c(-c4ccccc4Cl)noc3C)n2)cc1
The “% Inhibition @ 10 uM” value of the first is lower: -0.169% for the first, 3.66% for the second.

First: CCN(CC)C(=O)C1CCCN(Cc2cc(C(C)(C)C)c(O)c(C(C)(C)C)c2)C1 (centres unmarked)
Second: Cc1cc(Cl)cc(C)c1OCCN1CCCC1
The “% Inhibition @ 10 uM” value of the first is higher: -0.969% for the first, -3.32% for the second.

Going from `CCC(Cc1ccccc1)NS(=O)(=O)c1cccc2nsnc12` (centres unmarked) to `CN1CCC(NC(Cc2ccccc2)c2ccccc2)CC1` (centres unmarked), the “% Inhibition @ 10 uM” value falls from 0.457% to 0.217%.

Going from `O=C(c1cccc(Br)c1)N1CCN(c2ccc([N+](=O)[O-])cc2)CC1` to `O=C(c1ccco1)N1CCN(c2ncnc3onc(-c4ccc(Cl)cc4)c23)CC1`, the “% Inhibition @ 10 uM” value falls from 1.48% to -9.6%.

Compared with `COc1ccccc1-c1nc2s/c(=C\c3cc(OC)c(OC)c(OC)c3)c(=O)n2n1`, `COc1cc(/C=C2\N=C(c3cc(OC)c(OC)c(OC)c3)OC2=O)cc(OC)c1OC` is lower in “% Inhibition @ 10 uM” value: 2.24% for the first, 0.607% for the second.

Going from `CCCCC(=O)N1CC(C)N(C(=O)CCCC)CC1C` (centres unmarked) to `Cc1ccc(-n2nc(C)c3c(C)c(CCC(=O)NCCCN4CCCC4=O)c(C)nc32)cc1`, the “% Inhibition @ 10 uM” value falls from 2.38% to -0.72%.

Going from `CCc1ccc(N(CC(=O)NCc2cccnc2)S(C)(=O)=O)cc1` to `CCS(=O)(=O)n1nc(-c2cccnc2)nc1NCc1ccc(F)cc1`, the “% Inhibition @ 10 uM” value falls from -4.57% to -4.75%.

Compared with `COc1cc(/C(O)=C(\C#N)c2nc3ccccc3[nH]2)cc(OC)c1OC`, `COc1ccc(CNCc2cccc(OC)c2OC)cc1Br` is higher in “% Inhibition @ 10 uM” value: 1.37% for the first, 3.17% for the second.

First: CC(=O)Nc1ccc2c(c1)C(O)Cc1ccccc1S2 (centres unmarked)
Second: CC1=C(C(=O)Nc2ccc(Cl)cc2)C(c2ccccc2)NC(=O)N1 (centres unmarked)
The “% Inhibition @ 10 uM” value of the first is lower: -11.2% for the first, 6.09% for the second.

First: O=C(COc1ccc(S(=O)(=O)NCc2ccccc2)cc1)NC1CCCCCC1
Second: OCC1CCCCN1Cc1ccc(-c2ccccc2)cc1 (centres unmarked)
The “% Inhibition @ 10 uM” value of the first is lower: 2.5% for the first, 5.01% for the second.

Compared with `Cc1ccc(Cc2nn3c(=O)/c(=C\c4sccc4C)sc3nc2=O)cc1`, `Cc1ccc2oc(-c3cccc(NC(=O)Cn4cnc5c(=O)n(C)c(=O)n(C)c54)c3)nc2c1` is higher in “% Inhibition @ 10 uM” value: 2.9% for the first, 11.6% for the second.

Compared with `COc1ccc(-c2cc(C(=O)O)c3ccccc3n2)cc1`, `CCC(C)NC(=O)c1cc(-c2ccc(C)s2)nc2ccccc12` (centres unmarked) is higher in “% Inhibition @ 10 uM” value: -2.37% for the first, -1.27% for the second.

Going from `COC(=O)C1=CN(C(C)C)C=C(C(=O)OC)C1c1ccccc1OC` to `COC(=O)c1c(C(=O)OC)c2ccccn2c1C(=O)c1ccc([N+](=O)[O-])cc1`, the “% Inhibition @ 10 uM” value falls from 4.99% to -4.35%.

Going from `N=C(NOC(=O)COc1ccccc1)c1ccc(Br)cc1` to `N=C(NOC(=O)CCCc1ccccc1)c1ccc(Cl)cc1`, the “% Inhibition @ 10 uM” value rises from -1.26% to 0.275%.

Going from `CC(=O)N1N=C(c2ccccc2)CC1c1cccc(Br)c1` (centres unmarked) to `Cc1ccc(C(=O)N2CCn3cccc3C2c2ccccc2)cc1` (centres unmarked), the “% Inhibition @ 10 uM” value falls from 0.324% to -2.19%.

Compared with `COc1cccc2c1Oc1nc(-c3cccc(O)c3)nc(S)c1C2`, `COc1cccc(CNC(=O)C2CCC(CNc3nc(S)nc4ccccc34)CC2)c1` (centres unmarked) is lower in “% Inhibition @ 10 uM” value: 49.7% for the first, 9.31% for the second.

Going from `Cc1cc(NCc2ccccc2)c2nncn2n1` to `Cc1ccccc1OCC(=O)Nc1ncccn1`, the “% Inhibition @ 10 uM” value falls from 6.73% to -6.94%.

Compared with `CN1CCN(c2ccc3nnc(CCC(=O)N4CCC(Cc5ccccc5)CC4)n3n2)CC1`, `O=C(c1cc(-c2ccc3c(c2)OCO3)on1)N1CCN(Cc2ccccc2)CC1` is higher in “% Inhibition @ 10 uM” value: -2.84% for the first, 2.4% for the second.

Compared with `Fc1ccc(-c2nnc(-c3ccccc3Cl)o2)cc1`, `O=C1NC(=O)c2cc(-c3ccccc3)ccc21` is lower in “% Inhibition @ 10 uM” value: 0.815% for the first, -1.77% for the second.

Compared with `O=C(Nc1cccc(NC(=O)C2CCCO2)n1)C1CCCO1` (centres unmarked), `O=C(NCC1CCCO1)C1CCN(S(=O)(=O)c2c[nH]cn2)CC1` (centres unmarked) is higher in “% Inhibition @ 10 uM” value: 0.389% for the first, 1.23% for the second.

Compared with `CC1CCCCN1S(=O)(=O)c1ccc([N+](=O)[O-])cc1` (centres unmarked), `O=C(O)c1ccc(S(=O)(=O)N2CCOCC2)cc1` is higher in “% Inhibition @ 10 uM” value: -3.04% for the first, -1.29% for the second.

Going from `CC(C)Nc1ncnc2onc(-c3cccc(Cl)c3)c12` to `Cc1noc2ncnc(NCCc3ccc(Cl)cc3)c12`, the “% Inhibition @ 10 uM” value rises from -2.41% to -2.34%.

Compared with `C=CCN(Cc1nc(-c2cccc(C)c2)no1)S(=O)(=O)c1ccc(C)cc1`, `Cc1oc(-c2ccccc2)nc1CS(=O)CC(=O)N(C)Cc1ccccc1` (centres unmarked) is lower in “% Inhibition @ 10 uM” value: 9.89% for the first, -1.89% for the second.

Going from `O=C(O)CCn1cnc2onc(-c3ccc(F)cc3)c2c1=O` to `NC(=O)c1ccc(-n2c(CCC(=O)O)ccc2-c2ccc(F)cc2)cc1`, the “% Inhibition @ 10 uM” value falls from 6.64% to -4.98%.

Going from `CCOc1ccc2nc(N(CCN(C)C)C(=O)c3ccc(Br)s3)sc2c1` to `CCCCN(C)c1cc(C)nc2c(-c3ccc(Cl)cc3)c(C)nn12`, the “% Inhibition @ 10 uM” value rises from -2.22% to -0.971%.

Compared with `CCOC(=O)c1sc(N2C(=O)c3oc4ccccc4c(=O)c3C2c2ccc(C)o2)nc1C` (centres unmarked), `CCOC(=O)c1ccc(N2C(=O)C3CCCCC3C2=O)cc1` (centres unmarked) is higher in “% Inhibition @ 10 uM” value: 0.189% for the first, 1.57% for the second.

Going from `CCN1CCCC1CNC(=O)C1c2ccccc2C(=O)N(CC(C)C)C1c1cccs1` (centres unmarked) to `Cc1oc(-c2ccccc2F)nc1CS(=O)CC(=O)NCCN1CCCCC1C` (centres unmarked), the “% Inhibition @ 10 uM” value falls from 0.589% to 0.475%.

Compared with `O=c1oc2c(Cl)cc(Cl)cc2cc1-c1nc(-c2ccc([N+](=O)[O-])cc2)cs1`, `COc1ccc(-c2c(C)nn3c(N)c(-c4ccc(Cl)cc4)cnc23)cc1` is lower in “% Inhibition @ 10 uM” value: -2.32% for the first, -4.07% for the second.

Going from `CC(=O)N(C)c1ccc(NC(=O)/C=C\C(=O)O)cc1` to `N#Cc1cccc(NC(=O)/C=C/C(=O)O)c1`, the “% Inhibition @ 10 uM” value rises from 1.63% to 5.46%.

First: O=C1C2CC3CC1CC(C(=O)O)(C3)C2
Second: CCn1cc(CN(C)C(=O)CC23CC4CC(CC(C4)C2)C3)cn1
The “% Inhibition @ 10 uM” value of the first is higher: 5.09% for the first, 2.95% for the second.

Compared with `COc1cc(OC)cc(C(=O)Nc2ccc(Br)c(C)c2)c1`, `COc1cc(OC)cc(C(=O)Nc2nc(-c3nnn(-c4ccc(Cl)cc4)c3C)ns2)c1` is lower in “% Inhibition @ 10 uM” value: 5.99% for the first, 4.11% for the second.

Compared with `CCC(C)NC(=O)Cn1cc(S(=O)(=O)NC)c(S(=O)(=O)NC)c1` (centres unmarked), `CCOC(=O)c1c(C)[nH]c(C)c1S(=O)(=O)NCCSCc1ccco1` is lower in “% Inhibition @ 10 uM” value: -1.77% for the first, -7.66% for the second.

Going from `COC(=O)c1cc(C(O)c2ccc(C(=O)O)c(C(=O)OC)c2)ccc1C(=O)O` to `COc1ccc(Cn2c(C(=O)O)c(CNCCc3ccc(C)cc3)c3ccc(OC)cc32)cc1`, the “% Inhibition @ 10 uM” value rises from 3.06% to 9.28%.

Compared with `Cc1onc(-c2ccccc2)c1C1=N/C(=C/C(Cl)=C/c2ccccc2)C(=O)O1`, `Nc1ccc(-c2ccc3ccccc3n2)c2ccccc12` is lower in “% Inhibition @ 10 uM” value: 8.06% for the first, 2.94% for the second.

Compared with `CC1=C(C(=O)OC2CCCC2)C(c2ccccc2)C2=C(O)CCCC2=N1` (centres unmarked), `CCOC(=O)C1CCN(Cc2ccccc2Br)CC1` is lower in “% Inhibition @ 10 uM” value: 2.92% for the first, -5.41% for the second.

First: COc1cccc(/C=C(\C#N)c2nc(-c3cccs3)cs2)c1
Second: COc1cccc(C(=O)Nc2cc(Br)cc3cccnc23)c1
The “% Inhibition @ 10 uM” value of the first is lower: 0.815% for the first, 6.8% for the second.

First: CCOc1ccccc1/C=C1/SC(=O)N(CN2CCOCC2)C1=O
Second: CCN1C(=O)/C(=C/c2ccc(OC)cc2OC)S/C1=N/c1ccc(OC)cc1
The “% Inhibition @ 10 uM” value of the first is higher: 1.92% for the first, -1.55% for the second.

First: CN(C)CCn1c2ccccc2n2cc(C(C)(C)C)nc12
Second: CCn1c2ccccc2c2cc(CNc3ccc(Cl)cc3)ccc21
The “% Inhibition @ 10 uM” value of the first is lower: -4.11% for the first, -3.35% for the second.

Compared with `O=C(NCCCO)c1cccc(Br)c1`, `Cc1ccc(NC(=O)c2ccc(F)cc2)c(Br)c1` is higher in “% Inhibition @ 10 uM” value: 3.01% for the first, 3.47% for the second.

Going from `COP(=O)(OC)C1(Nc2ccc(Cl)c(Cl)c2)CCCCC1` to `O=C(O)CNC(=S)N(Cc1ccccc1Cl)C1CCCC1`, the “% Inhibition @ 10 uM” value falls from 1.7% to 1.42%.

First: CN(C)CCN(CCCc1ccccc1)Cc1ccccc1
Second: N[C@@H](c1ccccc1)C(O)(c1ccccc1)c1ccccc1
The “% Inhibition @ 10 uM” value of the first is higher: 1.88% for the first, -1.74% for the second.

Compared with `CC1(C(=O)O)CCC(C(=O)NCCc2ccccc2)C1(C)C` (centres unmarked), `O=C(NCCc1ccc(Cl)cc1)c1cc(-c2ccncc2)nc2ccccc12` is higher in “% Inhibition @ 10 uM” value: -6.29% for the first, -2.26% for the second.

Going from `c1csc(-c2nc(-c3ccc(-n4cccc4)cc3)no2)c1` to `O=C(Nc1ccncc1)c1ccc2ccccc2c1`, the “% Inhibition @ 10 uM” value falls from 4.19% to -1.61%.

First: O=C(O)Cn1cccc1/C=N\c1nnc(N2CCCCCC2)s1
Second: NC(=O)c1nnn(-c2nonc2N)c1CN1CCCCC1
The “% Inhibition @ 10 uM” value of the first is lower: -2.14% for the first, 2.8% for the second.

First: COc1cc2oc(=O)c(CC(=O)NCc3ccco3)c(C)c2cc1Cl
Second: Cc1ccc2c(c1)-c1onc(C(=O)NCc3ccco3)c1CO2
The “% Inhibition @ 10 uM” value of the first is lower: -2.57% for the first, 2.78% for the second.

Going from `CN(C(=S)NC1CCS(=O)(=O)C1)C1CCCCC1` (centres unmarked) to `CCC(C(=O)NCCCN1CCN(C2CCCCC2)CC1)n1nc(C)n2c(cc3occc32)c1=O` (centres unmarked), the “% Inhibition @ 10 uM” value falls from 7.26% to -3.79%.

First: CCCc1[nH]nc2c1C(c1ccc(N(C)C)cc1)C(C#N)=C(N)O2 (centres unmarked)
Second: O=C(NCc1ccc2c(c1)OCO2)c1ccc(CS(=O)(=O)Cc2cccc(Cl)c2)o1
The “% Inhibition @ 10 uM” value of the first is lower: -2.87% for the first, 2.35% for the second.

First: Cn1c(=O)c2c(nc(CN3CCN(C(=O)c4ccco4)CC3)n2CCCO)n(C)c1=O
Second: C[C@@H](C[C@H](NC(=O)c1ccc(-c2ccccc2Cl)cc1)C(=O)NC1(C#N)CCOCC1)c1ccccc1
The “% Inhibition @ 10 uM” value of the first is higher: 0.317% for the first, -8.36% for the second.

Compared with `CCN(CC)CCCOc1cccc(OC)c1`, `CC1(C)CC(=NOC(=O)N2c3ccccc3CCc3ccccc32)CC(C)(C)N1` is lower in “% Inhibition @ 10 uM” value: 5.01% for the first, -0.687% for the second.

In the case of `CCOC(=O)/C=C(\C)Sc1cc(=O)oc2ccccc12`, the “% Inhibition @ 10 uM” value is reported as -5.46% and -2.98%.
